The campaign covered roughly 410,000 compounds. About 6,400 (1.6%) were called active. The inconclusive results got no clear call from the source; some entries with a clear call stand among them for comparison. Calls come from the whole dose curve; as a rule, active = well fitted inhibition curve with a large enough effect; inconclusive = small, poorly fitted or top-dose-only effect; inactive = no such curve, though single readings can be large or run the other way. No potency is given beside an inconclusive call; the fits are too rough.
target: Glucagon-like peptide 1 receptor (Homo sapiens) (UniProt P43220); assay: qHTS of GLP-1 Receptor Inverse Agonists (Inhibition Mode); conditions: HEK293 GLP-1R CRE-luciferase, luminescence, 24 h, GLP-1R form is constitutively active; activity change, negative = inhibition: at 38.3 µM (top of the series) unless noted; note: nearly all actives have a fitted effect of over 55% in size
Summary of the method: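 GLP-1R inverse agonism mode: basal reporter luminescence in engineered HEK293 cells measured after one day of compound exposure at 37 deg C, with a 12 min room-temperature detection step.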
% is set by controls: 0 for no effect and ±100 for the full control effect; potency is the fitted concentration of half-maximal effect; tags give direction and shape of the fitted curve.

UniProt P43220, sequence (P43220 whole entry, looked up): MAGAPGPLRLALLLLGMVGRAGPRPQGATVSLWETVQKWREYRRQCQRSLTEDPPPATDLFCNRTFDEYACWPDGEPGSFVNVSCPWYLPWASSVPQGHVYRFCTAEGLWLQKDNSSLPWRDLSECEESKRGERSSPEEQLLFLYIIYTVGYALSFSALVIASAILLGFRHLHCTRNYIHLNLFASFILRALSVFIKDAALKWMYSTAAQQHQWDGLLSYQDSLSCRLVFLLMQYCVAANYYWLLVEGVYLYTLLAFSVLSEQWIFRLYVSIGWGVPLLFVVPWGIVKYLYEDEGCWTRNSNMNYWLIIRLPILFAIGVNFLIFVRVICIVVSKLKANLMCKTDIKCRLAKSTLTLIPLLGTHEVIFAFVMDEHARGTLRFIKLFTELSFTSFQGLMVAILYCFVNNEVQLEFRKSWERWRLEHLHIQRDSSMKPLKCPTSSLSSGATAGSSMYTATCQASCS

Row | Structure (SMILES) | Potency | activity change, negative = inhibition
1 | COc1cc(/C=N/NC(=O)c2nnn(-c3nonc3N)c2-c2cccs2)ccc1O | inconclusive [inhibitor, partial curve] | –
2 | Cc1ccccc1COc1cccn2c(N(C)C(=O)CCC3CCCC3)c(C)nc12 | inconclusive [inhibitor, single point] | –
3 | Fc1ccc(-c2nnc(-c3ccc(Cl)cc3Cl)o2)cc1 | – | inactive: 11.8%
4 | CCc1ccc(OCc2n[nH]c(=S)n2C(C)CCCC(C)C)cc1 (configuration not stated) | inconclusive [inhibitor, partial curve, poor fit] | –
5 | Cc1ccc(Nc2c(-c3c[nH]c4ccccc34)nc3cc(C)ccn23)cc1 | inconclusive [inhibitor, single point] | –
6 | CCCOC(=O)CSc1nc(N)c(C#N)c(-c2ccco2)c1C#N | – | inactive: 11%
7 | COc1ccccc1N1CCN(S(=O)(=O)CCNC(=O)c2ccc(Br)o2)CC1 | inconclusive [inhibitor, partial curve, poor fit] | –
8 | COc1cc(OC)c(OC)cc1/C=C/c1nc2cc3ccccc3cc2c(=O)n1-c1ccc(Cl)cc1 | inconclusive [inhibitor, partial curve, poor fit] | –
9 | CC(O)(CC(=O)CC(=O)c1ccccc1)c1ccccc1 (configuration not stated) | inconclusive [inhibitor, partial curve, poor fit] | –
10 | O=C1C=C(c2cc3ccccc3o2)C[C@@H](c2ccc(F)cc2)C1 | inconclusive [inhibitor, single point] | –
11 | Cc1cc(C)c(S(=O)(=O)N2CCN(C(=O)c3ccc4c(c3)OCO4)CC2)c(C)c1 | inconclusive [inhibitor, single point] | –
12 | COc1ccc(N(C(=O)C2CCCCC2)S(=O)(=O)c2cccc3cccnc23)cc1 | inconclusive [inhibitor, single point] | –
13 | COc1ccc(NC(=O)c2ccc3c(c2)N(C)CCS3)cc1 | inconclusive [inhibitor, single point] | –
14 | c1ccc(CNc2c3ccccc3nc3ccccc23)cc1 | inconclusive [inhibitor, partial curve, poor fit] | –
15 | Cc1ccc(OC(C)C(=O)Nc2nonc2-c2ccc(Br)cc2)cc1C (configuration not stated) | inconclusive [inhibitor, partial curve, poor fit] | –
16 | CC(C)Oc1ccc(C(=O)OCC(=O)NC(=O)NC2CCCC2)cc1 | inconclusive [inhibitor, single point] | –
17 | CCOc1ccc(S(=O)(=O)Nc2cc(SCC(=O)O)c(O)c3ccccc23)cc1 | – | inactive: -22.5%
18 | Clc1ccc(Cn2cc(Br)cn2)cc1Cl | – | inactive: -10.9%
19 | O=C(Nc1ccccc1)c1nnsc1S(=O)(=O)c1ccc(Cl)cc1 | inconclusive [inhibitor, partial curve, poor fit] | –
20 | Cc1ccc(S(=O)(=O)N2CCN(C(=O)c3cc4c(C)nn(-c5ccccc5C)c4s3)CC2)cc1 | inconclusive [inhibitor, single point] | –
21 | O=C(CSc1ccc(-c2ccccn2)nn1)NCc1ccc(Cl)cc1 | inconclusive [inhibitor, single point] | –

Row | Structure (SMILES) | Potency | activity change, negative = inhibition
22 | COC(=O)C1=C(O)/C(=C\c2ccc(CNS(=O)(=O)c3ccccc3)o2)N=C1C | – | inactive: 15.2%
23 | COc1ccc(OCC(O)CN(CC(O)COc2ccc(OC)cc2)c2cccc(O)c2)cc1 (configuration not stated) | inconclusive [inhibitor, partial curve, poor fit] | –
24 | COc1ccc(OCc2cccc(C(=O)NN)c2)cc1 | inconclusive [inhibitor, full curve] | –
25 | CCOC(=O)Cc1ccc(NC(=O)N2CCOc3ccc(C)cc32)cc1 | inconclusive [inhibitor, single point] | –
26 | CC(C)c1ccc(NC(=O)C2CCCN(S(=O)(=O)c3cccc4cccnc34)C2)cc1 (configuration not stated) | inconclusive [inhibitor, partial curve] | –
27 | CCCCN(C)CCCNC(=O)C1CCN(c2nc3ccc(CC)cc3s2)CC1 | inconclusive [inhibitor, partial curve, poor fit] | –
28 | O=C(CCc1cccc(Cl)c1)NC1CCCN(Cc2ccccc2F)C1 (configuration not stated) | inconclusive [inhibitor, partial curve, poor fit] | –
29 | O=C(NCC1COc2ccccc2O1)c1ccc(Cl)c(S(=O)(=O)N2CCCC2)c1 (configuration not stated) | inconclusive [inhibitor, single point] | –
30 | CC(C(=O)NCCc1ccccc1)N1c2cccc3cccc(c23)S1(=O)=O (configuration not stated) | inconclusive [inhibitor, partial curve, poor fit] | –
31 | Cc1ccc(C(C)C)cc1OCC(=O)N/N=C/c1ccc2c(c1)OCCO2 | inconclusive [inhibitor, partial curve, poor fit] | –
32 | O=c1c2ccccc2nc(COc2ccccc2)n1/N=C/c1ccc(O)c(O)c1 | inconclusive [inhibitor, single point] | –
33 | Cc1c(S(=O)(=O)c2cccc(Cl)c2)nnn1-c1cccc(C(F)(F)F)c1 | inconclusive [inhibitor, single point] | –
34 | C/C(=N\NC(=O)c1ccccc1[N+](=O)[O-])c1ccc(Br)s1 | – | inactive: -20.8%
35 | Cn1nnnc1Sc1ncnc2scc(-c3ccc(F)cc3)c12 | inconclusive [inhibitor, partial curve, poor fit] | –
36 | O=C(CSc1ncnc2c1nnn2Cc1ccccc1F)NCC1CCCO1 (configuration not stated) | inconclusive [inhibitor, single point] | –
37 | COc1ccc(N=Cc2c(C)[nH][nH]c2=O)cc1 | inconclusive [inhibitor, partial curve, poor fit] | –
38 | O=C(NC1CC(=O)N(c2cccc(F)c2)C1)c1ccc(Br)o1 (configuration not stated) | – | inactive: 8.52%
39 | CSc1ccc(CCNC(=O)CCc2c(C)nc3c(c(C)nn3-c3ccccc3)c2C)cc1 | – | inactive: 15.3%
40 | CC(C)(C)c1ccccc1NC(=O)Nc1nc(C(N)Cc2ccc(F)cc2)cs1 (configuration not stated) | inconclusive [inhibitor, single point] | –
41 | COc1ccc(-c2nnc(SCc3nc4ccccc4s3)n2C(C)C)cc1 | inconclusive [inhibitor, single point] | –
42 | CCc1ccc(O)c(CNCCNCc2cc(CC)ccc2O)c1 | inconclusive [inhibitor, partial curve, poor fit] | –

Row | Structure (SMILES) | Potency | activity change, negative = inhibition
43 | O=C(O)c1cc(-n2c(/C=C\c3ccc(F)cc3)nc3ccccc3c2=O)ccc1Cl | – | inactive: -1.44%
44 | Cc1cccc(N2CCN(CCNC(=O)C3COc4ccccc4C3)CC2)c1C (configuration not stated) | inconclusive [inhibitor, partial curve, poor fit] | –
45 | O=C(NCc1ccc(Cl)cc1)c1cnc(N2CCCCC2)c2ccccc12 | inconclusive [inhibitor, single point] | –
46 | COCC(C)n1c(SCC(=O)N2CCc3ccccc3C2)nc2ccccc2c1=O (configuration not stated) | inconclusive [inhibitor, single point] | –
47 | COc1ccc(C)cc1N(CC(=O)Nc1cccnc1)S(=O)(=O)c1ccc(C)cc1 | inconclusive [inhibitor, partial curve, poor fit] | –
48 | O=C1c2ccccc2C2(c3ccccc3)N1CCN2C(=O)C(Cl)(Cl)Cl (configuration not stated) | inconclusive [inhibitor, partial curve, poor fit] | –
49 | COc1ccc(S(=O)(=O)N[C@@H]2C=C[C@@H](CC(=O)N3CCc4ccccc4C3)O[C@@H]2CO)cc1 | – | inactive: 5.11%
50 | CS(=O)(=O)N1CCN(c2ccccc2NC(=S)NC(=O)c2ccccc2[N+](=O)[O-])CC1 | inconclusive [inhibitor, partial curve, poor fit] | –
51 | S=C(NCCc1ccccc1)Nc1cnc2ccccc2c1 | inconclusive [inhibitor, full curve, poor fit] | –
52 | Cc1ccc(Cl)cc1-n1ncc2c(NC3CCCCCC3)ncnc21 | active: 4.47 µM | –
53 | Cc1cccc(C(=O)OCC(=O)N2c3ccccc3CC2C)c1C (configuration not stated) | inconclusive [inhibitor, partial curve, poor fit] | –
54 | COC(=O)c1oc2c(c1C)C1(CCC2)SCCS1 | inconclusive [inhibitor, partial curve, poor fit] | –
55 | CC(OC(=O)c1ccccc1CCc1ccccc1)C(N)=O (configuration not stated) | inconclusive [inhibitor, partial curve, poor fit] | –
56 | CC1=NOC(=O)/C1=C/c1ccc(O)c(Cl)c1 | – | inactive: -2.55%
57 | COc1cc(CNCCO)cc(Cl)c1OCc1ccc(Cl)cc1Cl | inconclusive [inhibitor, full curve, poor fit] | –
58 | Nn1c(SCC(=O)Nc2ccc(OC(F)F)cc2)nnc(Cc2ccccc2)c1=O | inconclusive [inhibitor, single point] | –
59 | O=C(NCc1ccccc1)C(c1ccc(F)cc1)N(C(=O)c1csnn1)c1ccccc1 (configuration not stated) | inconclusive [inhibitor, partial curve, poor fit] | –
60 | O=C(Nc1cccc(C(=O)N2CCN(Cc3ccccc3)CC2)c1)c1ccccc1 | inconclusive [inhibitor, partial curve, poor fit] | –
61 | CCN(CC)c1ccc(C(=O)OCC(=O)Nc2cc(C)on2)cc1 | inconclusive [inhibitor, partial curve, poor fit] | –
62 | CC(=O)c1ccc(S(=O)(=O)Nc2cccc(-c3ccc(N4CCCCCC4)nn3)c2)cc1 | inconclusive [inhibitor, partial curve, poor fit] | –

From PubChem BioAssay AID624417 (National Center for Advancing Translational Sciences (NCATS), 2012)
